The supplement of paper PMC10369915
The list shows a part of the results. Rule as the data show it: active = 3.2 or more and inactive = the rest. Only a few entries rise above the background.

B1: FOXL2_Y81_I80T_YF (peptide)
chain: TLSGTYQFIIA
B2: FOXL2_Y81_I84N (peptide)
chain: TLSGIYQYNIA
B3: FOXL2_Y81_I84N_YF (peptide)
chain: TLSGIYQFNIA
B4: FOXL2_Y83 (peptide)
chain: SGIYQYIIAKF
B5: FOXL2_Y83_I80T (peptide)
chain: SGTYQYIIAKF
B6: FOXL2_Y83_I84N_YF (peptide)
chain: SGIFQYNIAKF
B7: FOXL2_Y83_I84S (peptide)
chain: SGIYQYSIAKF
B8: FOXL2_Y83_YF (peptide)
chain: SGIFQYIIAKF
B9: FOXL2_Y91 (peptide)
chain: AKFPFYEKNKK
B10: FOXL2_Y91_F90S (peptide)
chain: AKFPSYEKNKK
B11: FOXP3_Y342 (peptide)
chain: RPPFTYATLIR
B12: FREM2_Y2061_R2066C (peptide)
chain: DAGTDYVGISC
B13: FREM2_Y2158 (peptide)
chain: TGDVQYRSSVR
B14: FRK_Y132 (peptide)
chain: EKQLLYSENKT
B15: FRK_Y99 (peptide)
chain: QQLQGYIPSNY
B16: FRK_Y99_I100V (peptide)
chain: QQLQGYVPSNY
B17: FRK_Y99_I100V_YF (peptide)
chain: QQLQGYVPSNF
B18: FRK_Y99_YF (peptide)
chain: QQLQGYIPSNF
B19: FRMD1_Y225 (peptide)
chain: KRGIDYILRHM
B20: FRMPD1_Y846 (peptide)
chain: FLQTDYTSQVS
B21: FRMPD1_Y846_Y846D (peptide)
chain: FLQTDDTSQVS
B22: FRS2_Y306 (peptide)
chain: VNKLVYENING
B23: FSHB_Y76_K72E (peptide)
chain: FEELVYETVRV
B24: FUS_Y239 (peptide)
chain: RSSGGYEPRGR
B25: FUS_Y239_R234C (peptide)
chain: CSSGGYEPRGR
B26: FUS_Y239_R244C (peptide)
chain: RSSGGYEPRGC
B27: FUS_Y526_P525L (peptide)
chain: RRERLYGGGGG
B28: FUS_Y526_R521C (peptide)
chain: CRERPYGGGGG
B29: FUS_Y526_R521G (peptide)
chain: GRERPYGGGGG
B30: FUS_Y526_R521H (peptide)
chain: HRERPYGGGGG
B31: FUS_Y526_R524S (peptide)
chain: RRESPYGGGGG
B32: FUS_Y526_R524T (peptide)
chain: RRETPYGGGGG
B33: FUT3_Y222 (peptide)
chain: LKVDVYGRSHK
B34: FUT3_Y222_G223R (peptide)
chain: LKVDVYRRSHK
B35: FXN_Y118 (peptide)
chain: LADKPYTFEDY
B36: FXN_Y118_D122Y (peptide)
chain: LADKPYTFEYY
B37: FXN_Y118_YF (peptide)
chain: LADKPYTFEDF

What was measured:
Experiment in all cases: enrichment score (SH2-bound / input frequency) (ratio); bacterial display of known human phosphotyrosine sites (pTyr-Var adds point mutants) read by sequencing; higher = stronger binding; tyrosines were phosphorylated by kinases first
Details in all cases: peptide library: pTyr-Var
SHP2 C-SH2 domain E139D = biological target: SHP2 C-SH2 domain E139D
[1] = biological target: SHP2 C-SH2 domain wild-type
SHP2 N-SH2 domain L43F = biological target: SHP2 N-SH2 domain L43F
SHP2 N-SH2 domain T42A = biological target: SHP2 N-SH2 domain T42A
SHP2 N-SH2 domain T52S = biological target: SHP2 N-SH2 domain T52S
[2] = biological target: SHP2 N-SH2 domain wild-type
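Also: displayed peptides selected on beads carrying the immobilized SH2 domain, with library peptides lacking any tyrosine serving as negative controls.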

| Binder | enrichment score (SHP2 C-SH2 domain E139D) | enrichment score [1] | enrichment score (SHP2 N-SH2 domain L43F) | enrichment score (SHP2 N-SH2 domain T42A) | enrichment score (SHP2 N-SH2 domain T52S) | enrichment score [2] |
| --- | --- | --- | --- | --- | --- | --- |
| B1 | inactive: 1.94 | inactive: 1.96 | inactive: 1.77 | inactive: 1.84 | inactive: 2.01 | inactive: 1.53 |
| B2 | inactive: 1.26 | inactive: 1.07 | inactive: 1.94 | inactive: 1.09 | inactive: 2.06 | inactive: 0.936 |
| B3 | inactive: 1.75 | inactive: 1.4 | inactive: 1.9 | inactive: 1.5 | inactive: 1.8 | inactive: 1.65 |
| B4 | inactive: 2.7 | inactive: 2.53 | inactive: 3.05 | active: 5.77 | active: 3.3 | inactive: 2.44 |
| B5 | inactive: 1.62 | inactive: 1.63 | inactive: 2.4 | active: 5.1 | inactive: 2.84 | inactive: 1.55 |
| B6 | inactive: 1.5 | inactive: 2.18 | inactive: 1.83 | inactive: 1.7 | inactive: 2.43 | inactive: 1.72 |
| B7 | inactive: 1.76 | active: 5.18 | active: 4.59 | active: 7.77 | active: 6.15 | inactive: 1.72 |
| B8 | inactive: 2.6 | inactive: 1.92 | inactive: 1.81 | inactive: 2.21 | inactive: 2.35 | inactive: 2.22 |
| B9 | inactive: 1.83 | inactive: 1.62 | inactive: 1.51 | inactive: 1.34 | inactive: 1.63 | inactive: 1.68 |
| B10 | inactive: 0.685 | inactive: 0.497 | inactive: 0.529 | inactive: 0.538 | inactive: 0.698 | inactive: 1.04 |
| B11 | inactive: 0.98 | inactive: 1.99 | inactive: 0.767 | inactive: 1.99 | inactive: 0.767 | inactive: 0.94 |
| B12 | inactive: 0.674 | inactive: 0.69 | inactive: 0.553 | inactive: 0.511 | inactive: 0.628 | inactive: 0.957 |
| B13 | inactive: 0.432 | inactive: 0.493 | inactive: 0.407 | inactive: 0.439 | inactive: 0.55 | inactive: 0.489 |
| B14 | inactive: 1.04 | inactive: 0.887 | inactive: 0.973 | inactive: 0.83 | inactive: 0.867 | inactive: 1.4 |
| B15 | inactive: 0.986 | inactive: 1.22 | inactive: 1.09 | inactive: 0.475 | inactive: 0.923 | inactive: 0.994 |
| B16 | inactive: 0.914 | inactive: 0.747 | inactive: 0.923 | inactive: 0.892 | inactive: 0.756 | inactive: 0.941 |
| B17 | inactive: 0.991 | inactive: 0.794 | inactive: 0.644 | inactive: 0.66 | inactive: 0.806 | inactive: 0.879 |
| B18 | inactive: 1.1 | inactive: 0.849 | inactive: 0.976 | inactive: 0.636 | inactive: 0.56 | inactive: 0.884 |
| B19 | active: 4.71 | active: 3.89 | active: 4.42 | active: 3.73 | active: 4.43 | active: 3.76 |

| Binder | enrichment score (SHP2 C-SH2 domain E139D) | enrichment score [1] | enrichment score (SHP2 N-SH2 domain L43F) | enrichment score (SHP2 N-SH2 domain T42A) | enrichment score (SHP2 N-SH2 domain T52S) | enrichment score [2] |
| --- | --- | --- | --- | --- | --- | --- |
| B20 | inactive: 1.09 | inactive: 1 | inactive: 1.1 | inactive: 0.91 | inactive: 0.924 | inactive: 1.18 |
| B21 | inactive: 0.898 | inactive: 0.777 | inactive: 0.682 | inactive: 0.722 | inactive: 0.693 | inactive: 0.95 |
| B22 | active: 3.78 | inactive: 2.7 | inactive: 2.94 | active: 9.19 | active: 3.79 | inactive: 3.04 |
| B23 | inactive: 1 | inactive: 0.849 | inactive: 0.952 | inactive: 0.919 | inactive: 1.13 | inactive: 0.926 |
| B24 | inactive: 0.342 | inactive: 0.378 | inactive: 0.28 | inactive: 1.17 | inactive: 0.289 | inactive: 0.402 |
| B25 | inactive: 0.488 | inactive: 0.528 | inactive: 0.532 | inactive: 0.551 | inactive: 0.503 | inactive: 0.63 |
| B26 | inactive: 0.523 | inactive: 0.542 | inactive: 0.387 | inactive: 0.389 | inactive: 0.384 | inactive: 0.551 |
| B27 | inactive: 0.231 | inactive: 0.268 | inactive: 0.227 | inactive: 0.205 | inactive: 0.244 | inactive: 0.168 |
| B28 | inactive: 0.758 | inactive: 0.744 | inactive: 0.66 | inactive: 0.9 | inactive: 0.773 | inactive: 0.528 |
| B29 | inactive: 0.388 | inactive: 0.875 | inactive: 2.84 | inactive: 2.24 | inactive: 1.73 | inactive: 0.926 |
| B30 | inactive: 0.998 | inactive: 0.992 | inactive: 1.08 | inactive: 0.816 | inactive: 0.915 | inactive: 1.11 |
| B31 | inactive: 0.247 | inactive: 0.313 | inactive: 0.2 | inactive: 0.27 | inactive: 0.197 | inactive: 0.48 |
| B32 | inactive: 0.289 | inactive: 0.158 | inactive: 0.27 | inactive: 0.226 | inactive: 0.2 | inactive: 0.145 |
| B33 | inactive: 0.667 | inactive: 0.587 | inactive: 0.879 | inactive: 0.618 | inactive: 0.608 | inactive: 0.805 |
| B34 | inactive: 0.252 | inactive: 0.273 | inactive: 0.196 | inactive: 0.182 | inactive: 0.184 | inactive: 0.219 |
| B35 | inactive: 0.465 | inactive: 0.807 | inactive: 0.858 | inactive: 0.829 | inactive: 0.762 | inactive: 0.727 |
| B36 | inactive: 1.01 | inactive: 0.729 | inactive: 0.947 | inactive: 1.06 | inactive: 1.11 | inactive: 1.08 |
| B37 | inactive: 0.696 | inactive: 0.876 | inactive: 1.1 | inactive: 0.688 | inactive: 0.795 | inactive: 0.973 |
